# Laboratory results reported in PubChem BioAssay AID485344 (National Center for Advancing Translational Sciences (NCATS), 2010).
# Out of some 340,000 compounds screened, about 6,900 (2%) were called active. No stated cut-off is given here; in the data, active means inhibition above about 30%; inactive means below that, where a call was filed. Only a part is listed here, and it is no random draw. Where no call is shown, the source filed none.
# Biological target: D(2) dopamine receptor (Homo sapiens) (UniProt P14416)
# Assay: HTS Assay for Allosteric Antagonists of the Human D2 Dopamine Receptor: Primary Screen for Antagonists; further: 0% is about no effect
# Settings: HEK293 TREx D2 cells, calcium flux, dopamine EC80; at 10 µM; stronger effect = higher value
# Summary of the method: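 Tetracycline-induced HEK293 T-REx cells expressing D2 force-coupled to calcium signalling were dye-loaded, exposed to compound for 180 s, then challenged with an EC80 of dopamine; calcium flux was followed kinetically for a further 180 s.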
# UniProt P14416, sequence (P14416 whole entry, looked up): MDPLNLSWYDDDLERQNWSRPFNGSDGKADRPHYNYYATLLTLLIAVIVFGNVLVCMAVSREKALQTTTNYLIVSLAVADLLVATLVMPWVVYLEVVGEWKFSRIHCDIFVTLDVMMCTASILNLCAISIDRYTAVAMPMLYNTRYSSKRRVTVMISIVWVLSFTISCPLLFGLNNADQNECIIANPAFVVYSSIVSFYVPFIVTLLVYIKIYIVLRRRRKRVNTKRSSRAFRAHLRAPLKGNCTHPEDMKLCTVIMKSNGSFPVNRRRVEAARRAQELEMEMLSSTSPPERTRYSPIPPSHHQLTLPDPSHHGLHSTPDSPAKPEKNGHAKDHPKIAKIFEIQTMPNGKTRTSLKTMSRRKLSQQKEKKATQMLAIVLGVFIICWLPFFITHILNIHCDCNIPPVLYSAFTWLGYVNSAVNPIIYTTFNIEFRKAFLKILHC
row,Compound,inhibition
1,Cc1cccc(N2CCN(c3ccc4cc(S(=O)(=O)N5CCC(C)CC5)ccc4n3)CC2C)c1 (stereo not given),2.74%
2,CCC(Sc1nc2nccnc2c(=O)n1Cc1ccc(Cl)cc1)C(=O)NC1CCCCC1 (stereo not given),8.28%
3,COc1cccc(CNc2sc3c(c2C(=O)Nc2ccc(OC)cc2OC)CCC3)c1,-19%
4,Cc1ccc(NC(=O)CCCn2c(=O)c3cccn3c3cccnc32)c(C)c1,-4.54%
5,COc1ccc(-n2ccn3c(CC(C)(C)CC(=O)O)nnc3c2=O)cc1,-12.6%
6,COc1ccccc1N1CCN(CC(=O)Nc2cc(F)ccc2C)CC1,active: 85.7%
7,O=c1c(-c2cc(-c3ccccc3)nc3c2COc2ccc(Cl)cc2-3)coc2ccccc12,-8.41%
8,Cc1ccc(-c2cnc(C3CC3)o2)cc1S(=O)(=O)Nc1ccc(F)cc1Cl,-7.03%
9,CCOc1ccc(NC(=O)c2cnn3c2NC(C)=C(C(=O)Nc2ccc(Cl)cc2)C3c2ccc(OC)c(OC)c2)cc1 (stereo not given),11.3%
10,COc1ccc(C)cc1NC1(c2ccccc2)C(=O)c2ccccc2C1=O,-12.2%
11,O=C(Nc1ccc(NC(=O)C2CC2)cn1)c1ccccc1,active: 35.9%
12,COc1ccc(OC)c(N(C)S(=O)(=O)c2ccc3c(c2)NC(=O)CC(=O)N3)c1,-10.4%
13,COc1ccc2nc(N3CCN(C(=O)CS(=O)(=O)c4ccc(C)cc4)CC3)sc2c1,-13.9%
14,COc1cccc(NC(=O)c2oc3ccccc3c2NC(=O)c2ccc(OC(C)C)cc2)c1,-9.15%
15,COc1ccc2c(CNCCc3ccco3)c(C(=O)O)n(Cc3ccc(F)cc3)c2c1,-15%
16,CCOC(=O)c1ccc(N2C(=O)c3[nH]nc(-c4ccccc4)c3C2c2ccc(C(C)C)cc2)cc1 (stereo not given),7.4%
17,CCn1cc(C(=O)NCc2ccc(Cl)cc2)c(=O)c2cc(S(=O)(=O)N3CCc4ccccc4C3)ccc21,3.75%
18,CC(=O)Nc1nonc1-c1nnc(SCC(=O)Nc2c(C)cccc2C)n1-c1ccccc1,8.09%
19,CC(C)c1ccc(NC(=O)C(Cc2ccccc2)n2cccc2)cc1 (stereo not given),-13.9%
20,Cc1ccc2c(CC(=O)Nc3c(C(=O)c4ccc(F)cc4)oc4ccccc34)coc2c1C,-19.2%
21,Cc1ccc(C)c(S(=O)(=O)c2cn(Cc3ccccc3)c3cc(N4CCCC4)c(F)cc3c2=O)c1,-11.1%
22,CCOc1ccc(NC(=O)Cn2c(=O)n(CC(=O)NCCc3ccccc3)c(=O)c3sccc32)cc1,2.07%
23,COC(=O)c1cc(CN2CCN(c3ccccc3C)CC2)ccc1O,active: 57.9%
24,CC(=O)N1CCCc2cc(S(=O)(=O)Nc3ccc(OC(F)(F)F)cc3)ccc21,-19.1%

row,Compound,inhibition
1,Cc1cccc(C)c1NC(=O)c1cc(S(=O)(=O)N2CCCc3ccccc32)ccc1F,-26%
2,COc1cccc(C(=O)NCCc2sc(-c3cccc(C)c3)nc2C)c1,10.7%
3,CCOC(=O)c1ccc(NC(=O)c2sc3nc4n(c(=O)c3c2C)CCC4)cc1,10.6%
4,CCN1C(C(=O)c2ccccc2)=C(NC(=O)c2ccc(Cl)cc2)c2ccccc2S1(=O)=O,-6.8%
5,CCN1C(=O)[C@H]2[C@@H](c3ccc(-c4ccc(C(C)=O)cc4)c(OC)c3)N[C@@](Cc3ccccc3)(C(=O)OC)[C@H]2C1=O,active: 32.1%
6,COc1cc(Cl)c(C)cc1NC(=O)CCn1cnc2onc(-c3ccc(F)cc3)c2c1=O,-1.63%
7,CC(CNC(=O)Cn1c(-c2cccs2)cc2cc(Cl)ccc21)c1ccccc1 (stereo not given),-1.95%
8,COCC(C)NS(=O)(=O)c1ccc(N2CCCCS2(=O)=O)cc1 (stereo not given),3.47%
9,CC1=C(C(=O)Nc2ccc(C)cc2C)C(c2cccs2)n2nc(SCc3ccc(Cl)cc3)nc2N1 (stereo not given),0.666%
10,CC(=O)c1ccc(NC(=O)CC2Sc3ccccc3NC2=O)cc1 (stereo not given),-15.3%
11,COc1ccc(-c2csc3ncnc(Nc4cccc(F)c4)c23)cc1,-6.09%
12,Cc1nc2nc(NC(=O)C(C)C)[nH]n2c(=O)c1Cc1ccccc1,7.19%
13,Cc1ccc(NC(=O)C2CCN(C(=O)c3cnn(-c4ccccc4)c3-n3cccc3)CC2)cc1Cl,5.5%
14,Cc1ccc(Nc2nc(C(N)=O)c(NC(=O)c3ccccc3Br)s2)cc1,6.61%
15,CCCN(CCC)c1cc(C)nc2nc(-c3ccc(Cl)cc3)nn12,-13.1%
16,Cc1ccc(C(=O)CSc2nc(-c3ccccc3)nc3c2CCCC3)cc1C,8.25%
17,COC(=O)c1ccccc1NC(=O)N1CCN(C/C=C/c2ccccc2)CC1,active: 35.2%
18,CCc1ccc(NCc2cc3cc(OC)c(OC)cc3n(CC(=O)Nc3ccc(F)cc3)c2=O)cc1,-16.6%
19,Cc1cccc(NC(=O)CC2C(=O)OCCN2Cc2ccccc2)c1 (stereo not given),-3.48%
20,CC1=C(c2ccc(F)cc2)S(=O)(=O)NC1=NCc1ccccc1Cl,4.23%
21,CC(C)(C)C(=O)Nc1ccc2nc(SCc3ccccc3)sc2c1,0.707%
22,O=C(c1ccco1)N(Cc1ccccc1)Cc1ccccn1,active: 56.6%
23,COc1cccc(CNC(=O)CCn2c(=O)c3cccn3c3cccnc32)c1,10.8%
24,Cc1ccccc1C(=O)NC(=O)Nc1ccc(-n2nc(C(F)(F)F)cc2C(F)(F)F)cc1,1.5%

row,Compound,inhibition
1,COc1ccc2cc(CNc3ccccc3)c(=O)n(CC(=O)Nc3ccc(C(C)=O)cc3)c2c1,1.46%
2,COc1ccc(-c2cn3nc(N4CCCC(C(=O)NCCCOC(C)C)C4)sc3n2)cc1 (stereo not given),-7.49%
3,CCC(=O)N1CCc2cc(S(=O)(=O)NC(Cc3ccccc3)C(=O)NCc3cccc(OC)c3)ccc21 (stereo not given),3.71%
4,Cc1ccc(Cl)cc1NC(=O)C(NS(=O)(=O)c1ccc2c(c1)CCC(=O)N2)c1ccccc1 (stereo not given),-9.69%
5,Cc1ccc2c(c1)c1c(c(=O)n(-c3ccccc3C)c(=O)n1Cc1cccc(F)c1)n2C,-3.82%
6,O=C(CCn1c(=O)sc2ccccc21)NCCC1=CCCCC1,active: 37.5%
7,CC1=NN(c2cccc(F)c2)C(=O)/C1=C/c1ccc(N(C)C)cc1,active: 31.6%
8,COc1ccccc1N1CCN(C(=O)CSc2nc(C)cc(=O)[nH]2)CC1,23%
9,O=C(NCc1cccnc1)c1ccc(-c2cccc(Cl)c2Cl)o1,active: 59.1%
10,CC(C)Nc1cc(N2CCN(C3CCCCC3)CC2)c2noc3c2c1C(=O)c1ccccc1-3,-2.47%
11,CCOc1ccc(CNC(=O)C(C)n2ncn3cccc3c2=O)cc1 (stereo not given),20%
12,O=C(c1ccc(Br)cc1)N1CCC(c2nc3ccccc3s2)CC1,-2.02%
13,CCOc1ccccc1CNC(=O)C1=C(C)C(=O)OC12CCN(C(C)=O)CC2,4.31%
14,O=C(N/N=C/c1ccc(N2CCCC2)c([N+](=O)[O-])c1)c1cccnc1,active: 40.6%
15,COc1ccc(C(=O)Cn2c(=O)n3nc(CCn4nc(C)cc4C)nc3c3cc(OC)c(OC)cc32)cc1,-8.72%
16,Cc1ccc(S(=O)(=O)N2CCOCC2)cc1NC(=O)CNCc1ccccn1,active: 32.7%
17,OC(COc1cc(Cl)c(Cl)cc1Cl)CN1CCN(c2ncccn2)CC1 (stereo not given),active: 36.9%
18,COc1ccc(S(=O)(=O)Nc2c(C)n(C)n(-c3ccccc3)c2=O)cc1Br,-1.55%
19,CN(CC(=O)Nc1cccc(S(=O)(=O)N2CCCCC2)c1)Cc1ccc(F)cc1,active: 32%
20,CC(=O)c1cccc(NC(=O)C2CCN(c3nnc(-n4cccc4)s3)CC2)c1,-3.51%
21,CCCN1C(=O)c2[nH]nc(-c3ccc(F)cc3)c2C1c1ccc(O)c(OCC)c1 (stereo not given),16.1%
22,Cc1cc2c(n1-c1ccc(C(=O)NCc3cccc(Br)c3)cc1)CCC(C)C2 (stereo not given),22.1%
23,Cc1ccccc1Cn1c(=O)n(CCCCC(=O)NCc2ccc3c(c2)OCO3)c(=O)c2ccccc21,-10.3%
24,CCOC(=O)c1c(-c2ccccc2)oc2ccc(OCc3ccc(C)cc3)cc12,4.32%

row,Compound,inhibition
1,Cc1ccc(N2C(=O)CSC23C(=O)Nc2ccccc23)cc1F (stereo not given),3.6%
2,Cc1cccc(-c2nc3c4ccccc4n(CC(=O)Nc4cc(F)ccc4F)c(=O)n3n2)c1,22%
3,C=CCn1c(C)cc(C(=O)COC(=O)/C=C/c2cccc(OC)c2)c1C,active: 42%
4,COc1ccc(NC(=O)CCn2nc(-c3ccc(Cl)cc3)c3ccccc3c2=O)cc1,-0.116%
5,O=C(Nc1nnc(N2CCCC2)s1)Nc1cc(F)ccc1F,13.9%
6,Cc1ccc(CSc2nc(N)cc(=O)[nH]2)cc1,active: 30.1%
7,O=C(NCCc1ccccc1)c1c2c(nc3ccccc13)C(=O)N(C1CCCCC1)C2,12.9%
8,Cc1oc(-c2cccc(Cl)c2)nc1CN1CCC(C(=O)NCc2ccc(F)cc2)CC1,-6.08%
9,COc1cccc(CNC(=O)C2CCCN(S(=O)(=O)c3ccc4c(ccn4C)c3)C2)c1OC (stereo not given),-9.17%
10,CCC(=O)N1c2ccc(S(=O)(=O)CCC(=O)NCCC3=CCCCC3)cc2CC1C (stereo not given),active: 30.9%
11,Cc1cc(C(=O)Nc2cccc(C(F)(F)F)c2)c2c(C)nn(-c3cccc(F)c3)c2n1,6.57%
12,Cc1nn2c3c(cnc2c1-c1ccc(F)cc1)C(=O)CC(c1ccccc1)C3 (stereo not given),-2.04%
13,O=C(Cn1c(=O)n(CCCS(=O)(=O)C2CCCCC2)c(=O)c2ccccc21)Nc1ccccc1F,-10.3%
14,CC(=O)Nc1ccc(NC(=O)CC(C)n2ccc(C)n2)cc1 (stereo not given),6.69%
15,CC(CCc1ccccc1)NCC(O)c1cccc([N+](=O)[O-])c1 (stereo not given),active: 58.8%
16,O=S(=O)(NCCc1csc2nc(-c3ccc(F)cc3)nn12)c1ccc2c(c1)OCCO2,-5.25%
17,Cc1cc(C)c(-c2csc(-c3cc4ccccc4oc3=O)n2)cc1C,3.24%
18,Cc1ccc(OCC(=O)N(Cc2ccc(N(C)C)cc2)CC2CCCO2)cc1C (stereo not given),7.28%
19,CCOc1ccc(CNCCN2CCCC2)cc1,active: 74.1%
20,O=C(c1cccc([N+](=O)[O-])c1)N1c2nc(-c3ccco3)nn2C2(CCCCC2)[C@@H]2CCCC[C@@H]21,5.89%
21,COc1ccc(-c2cc(C(F)(F)F)nc(SCC(=O)N3CCCCC3)n2)cc1,16.3%
22,CCCC(=O)c1cc2c(cc1NC(=O)c1ccccc1F)OCCO2,-17.5%
23,Cc1ccc(CNC(=O)CCCn2c(=O)c3ccccc3n(Cc3ccccc3Cl)c2=O)cc1,2.56%
